29 compounds from PubChem BioAssay AID1347073 (National Center for Advancing Translational Sciences (NCATS), 2019) can be followed below.

In all, about 45,000 compounds went through this assay and about 200 (0.44%) were called active. Not shown: some 7% with an inconclusive outcome. Calls follow the shape of the dose curve; as a rule, active = well fitted activation curve with a large enough effect; inconclusive = small, poorly fitted or top-dose-only effect; inactive = no such curve, though single readings can be large or run the other way. This is one part of the list.
Potency is read from the fitted curve at half-maximal effect.

This test can be described thus: qHTS of TDP-43 Inhibitors: NCGC Sytravon Library Screen. Also: nearly all actives have a fitted effect of over 55% in size. As to growth rescue (activation): 0% is about no effect. The note with it: yeast TDP-43 toxicity rescue, BacTiter-Glo growth, 24 h; series mostly up to 46.1 µM; growth rescue (activation): at the top concentration. The source says: The goal of this project is to identify new chemical probes capable of reversing the toxicity associated with TDP-43 which is associated with frontotemporal lobar degeneration and amyotrophic lateral sclerosis. These compounds will provide a complementary approach to deciphering the tangled mechanisms of toxicity and protection that we have uncovered through genome-wide genetic screens and are beginning to uncover in a large-scale proteomics analysis with mass spectroscopy. To this end, a miniaturized assay was developed to be screened against the Molecular Libraries Small Molecule Repository (MLSMR) to discover TDP-43 inhibitors. Please note that in the set-up this yeast-based assay compounds that inhibit as TDP-43, have a read-out as activators. NIH Chemical Genomics Center [NCGC] NIH Molecular Libraries Probe Centers Network [MLPCN] Assay Submitter (PI): Susan Lindquist, Whitehead Institute/MIT MLPCN Grant: R21 NS060957
Dispense 2.5 microL yeast galactose medium per 1536-well plate, pin compound, dispense 2.5 microL TDP-43 expressing yeast in galactose medium at OD600=0.02 (pregrown in raffinose medium to mid-log phase) per well, incubate for 24 hr at 30 deg C, and cell growth will be measured using 5 microL of Bactiter/Glo reagent to entire plate and read using Luminescence Protocol in ViewLux.
For the compound `COc1ccc2c(CC(=O)Nc3ccc(OC)c(NS(=O)(=O)c4ccc(F)cc4)c3)coc2c1`, the “growth rescue (activation)” value is inactive: 7.81%.

`CC1CCCC(NC(=O)CSc2nnc(-c3cccnc3)n2N)C1C` (centres undefined): the “growth rescue (activation)” value was inactive: -1.44%.

In the case of `O=C(O)C(Cc1ccccc1)N1C(=O)/C(=C/c2cccs2)SC1=S` (centres undefined), the “growth rescue (activation)” value is inactive: -37.7%.

Take `CN(C)CCCNC(=S)/N=c1\sccn1Cc1ccccc1Cl`: the “growth rescue (activation)” value is inactive: -4.41%.

With `Cc1c(Cl)cccc1NC(=O)c1cc(-c2ccco2)on1`, the “growth rescue (activation)” value was inactive: 11.1%.

`O=C(CCn1nnc2ccccc21)OCC(=O)c1ccc(F)cc1`: the “growth rescue (activation)” value was inactive: 7.05%.

Take `c1ccc(CCNC2=NCCS2)cc1`: the “growth rescue (activation)” value was inactive: 2.42%.

Take `O=C(Nc1ccc(Br)cn1)C1CCN(S(=O)(=O)c2cccs2)CC1`: the “growth rescue (activation)” value is inactive: 3.68%.

As for `CC(C)C(C)NC(=O)CN1C(=O)NC2(CCc3ccccc3C2)C1=O` (centres undefined), the “growth rescue (activation)” value was inactive: -12.5%.

In the case of `COc1ccccc1CC(=O)Nc1nc(-c2ccc(F)c(F)c2)cs1`, the Potency was active: 12.6 µM.

As for `CC(C)c1ccc2[nH]c3nc(SCC(=O)NC4CC4)nnc3c2c1`, the “growth rescue (activation)” value is inactive: -6.44%.

As for `O=C1C(NS(=O)(=O)c2ccc(Cl)cc2)=C(N2CCCCC2)C(=O)c2ccccc21`, the “growth rescue (activation)” value was inactive: 23.3%.

`COc1ccc(-n2nc(C(=O)NCC(=O)N3CCOCC3)c3ccccc3c2=O)cc1OC`: the “growth rescue (activation)” value was inactive: 3.61%.

In the case of `CCCCC(O)(CCCC)C(=O)N/N=C(\C)c1ccc(Cl)cc1`, the “growth rescue (activation)” value was inactive: 5.34%.

As for `O=S(=O)(c1ccccc1)N1CN(c2ccc(F)cc2F)c2nc3ccccc3nc21`, the “growth rescue (activation)” value was inactive: 10.1%.

For the compound `Nc1ccc2oc(Cc3ccc(Cl)cc3)nc2c1`, the “growth rescue (activation)” value was inactive: -0.897%.

Regarding `Cc1ccc(NC(=O)c2cccc(S(=O)(=O)N3CCN(C)CC3)c2)cc1F`, the “growth rescue (activation)” value is inactive: -7.89%.

With `Cc1oc2c(CN3CCCCC3)c(O)ccc2c(=O)c1-c1ccc(Br)cc1`, the “growth rescue (activation)” value is inactive: -0.275%.

Regarding `CC(C)CN(CC(C)C)C(=O)Nc1cccc([N+](=O)[O-])c1`, the “growth rescue (activation)” value is inactive: 15.6%.

On to `CC(=O)N=Nc1[nH]c(N)c2ccccc12`, for which the “growth rescue (activation)” value is inactive: 15.6%.

Regarding `O=C(N/N=C/c1ccc(O)cc1O)c1ccc(CN2C(=O)c3cccc4cccc2c34)cc1`, the “growth rescue (activation)” value is inactive: 32.2%.

On to `CC(=O)N1CCN(c2ccccc2NC(=O)c2ccc(-c3cccc([N+](=O)[O-])c3)o2)CC1`, for which the “growth rescue (activation)” value is inactive: 2.17%.

Take `COC(=O)c1ccc(C(=O)N2CCCC(Nc3ccc(F)c(F)c3)C2)cc1` (centres undefined): the “growth rescue (activation)” value is inactive: 15.5%.

Take `O=C1[C@@H]2[C@@H]3C[C@@H]([C@H]4ON=C(c5ccc(Cl)cc5)[C@@H]34)[C@@H]2C(=O)N1c1ccc2c(c1)OCO2`: the “growth rescue (activation)” value is inactive: 5.46%.

For `O=C(NC1CC1)c1cccc(Br)c1`, the “growth rescue (activation)” value is inactive: 12%.

With `Cc1ccc(S(=O)(=O)NCC2CCC(C(=O)NC3CCCCC3)CC2)cc1` (centres undefined), the “growth rescue (activation)” value was inactive: 17.6%.

As for `O=C(c1cn(-c2ccccc2)nc1-c1ccc(Cl)cc1)N1CCOCC1`, the “growth rescue (activation)” value is inactive: 8.51%.

As to `COc1cc(OC)c(NC(=O)CCNS(=O)(=O)c2ccc3c(c2)oc(=O)n3C)cc1Cl`, the “growth rescue (activation)” value was inactive: -20.5%.

As to `O=C(N/N=C/C=C\c1ccccc1[N+](=O)[O-])c1cc(-c2ccc3ccccc3c2)n[nH]1`, the “growth rescue (activation)” value is inactive: 12.6%.
